Results taken from PubChem BioAssay AID485281 (National Center for Advancing Translational Sciences (NCATS), 2010).
Hit rate of the full screen: of about 350,000 compounds, about 260 (0.074%) were called active. Inconclusive results, whose numbers are uncertain, are shown with a selection of clear calls. The call rests on the fitted dose curve; in most records, active means well fitted inhibition curve with a large enough effect; inconclusive means small, poorly fitted or top-dose-only effect; inactive means no such curve, though single readings can be large or run the other way. Potencies of inconclusive entries are doubtful fits and often do not repeat.

Each compound was assayed against Ferritin light chain (Equus caballus) (UniProt P02791) (assay: qHTS Assay for Identification of Novel General Anesthetics). Conditions: apoferritin/1-aminoanthracene competitive binding, fluorescence; activity change, negative = displacement: at 77.5 µM (top of the series).
Sequence of UniProt P02791 (P02791 whole entry, looked up): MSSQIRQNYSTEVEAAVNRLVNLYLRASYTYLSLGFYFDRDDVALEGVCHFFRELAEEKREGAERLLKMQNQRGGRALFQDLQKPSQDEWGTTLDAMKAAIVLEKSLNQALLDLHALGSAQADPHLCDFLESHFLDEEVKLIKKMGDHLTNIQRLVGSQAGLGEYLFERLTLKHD
In short: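 Probe: 1-aminoanthracene (50% saturated, PBS). Protein: horse-spleen apoferritin, 10 uM. Incubation: 10 min, room temperature. Detection: 380 nm excitation, 535 nm emission. Analysis: normalized response, four-parameter Hill.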
Further: nearly all actives have a fitted effect of over 20% in size.
On the % scale 0 is the no-effect control and ±100 the full control effect; potency means the concentration at half of the fitted maximal effect; tags describe the fitted curve by direction and shape.

Row | Compound | Potency | activity change, negative = displacement
1 | Cc1n[nH]c(=O)n1-c1ccc(OCc2ccccc2)cc1 | inconclusive: 14.1 µM [inhibitor, partial curve] | 
2 | S=C(Nc1ccc(Br)cc1)NC1CCCCC1 |  | inactive: -7.94%
3 | O=C(O)c1ccc(N2Cc3ccccc3C2)cc1O | inconclusive: 35.5 µM [inhibitor, single point] | 
4 | CC(C)NC(=O)NC(=O)COC(=O)Cc1c(F)cccc1Cl | inconclusive: 31.6 µM [inhibitor, partial curve] | 
5 | O=[N+]([O-])c1ccc2nc(N3CCCC3)sc2c1 |  | inactive: -2.06%
6 | O=C(Nc1ccc(F)cc1)NC1CCCCCCC1 | inconclusive: 22.4 µM [inhibitor, partial curve] | 
7 | CCCN(c1ccccc1F)S(=O)(=O)c1c[nH]c(C(=O)OC)c1 | inconclusive: 31.6 µM [inhibitor, single point] | 
8 | COc1ccc(/C=C(\C#N)C(=O)OCC(=O)NC(=O)NCCC(C)C)cc1 | inconclusive: 28.2 µM [inhibitor, single point] | 
9 | O=S(=O)(c1cc(Cl)ccc1Cl)N1CCCCC1 | inconclusive: 17.8 µM [inhibitor, partial curve] | 
10 | Cc1cc(C)n(C(=O)/C(C#N)=N/Nc2cc(Cl)cc(Cl)c2)n1 |  | inactive: -21.1%
11 | COc1c(C)cc(S(=O)(=O)N2CCCC2)c(C)c1C | inconclusive: 35.5 µM [inhibitor, single point] | 
12 | O=C(COC(=O)C1COc2ccccc2O1)NC(=O)Nc1ccc2c(c1)OCCO2 (configuration not stated) | inconclusive: 14.1 µM [inhibitor, partial curve] | 
13 | CC1=CC(C)=Nc2ccc(C)cc2N1 | inactive | 
14 | Cc1ccc(S(=O)(=O)N(CC(=O)Nc2cccc([N+](=O)[O-])c2)C2CCCCC2)cc1 | inconclusive: 10 µM [inhibitor, partial curve] | 
15 | O=C(NC1CC1)c1c[nH]c2ccc(S(=O)(=O)Nc3cccc(C(F)(F)F)c3)cc2c1=O | inconclusive: 39.8 µM [inhibitor, single point] | 
16 | O=[N+]([O-])c1ccccc1/C=N/OCc1ccccc1 | inconclusive: 35.5 µM [inhibitor, single point] | 
17 | CCn1c(=O)c2cc(C(=O)N(CC(C)C)CC(C)C)sc2c2ccccc21 | inconclusive: 3.98 µM [inhibitor, single point] | 
18 | Cc1[nH]nc(SCC(=O)N2CCCCCC2)c1[N+](=O)[O-] | inconclusive: 56.2 µM [inhibitor, partial curve] | 
19 | Cc1ccc(C23CC4CC(CC(CC(=O)N5CCOCC5)(C4)C2)C3)cc1 | inconclusive: 25.1 µM [inhibitor, partial curve] | 
20 | O=C1NC(C(=O)O)=CC(c2ccc([N+](=O)[O-])cc2)N1 (configuration not stated) |  | inactive: -14.6%
21 | NC(=O)COC(=O)c1sc2ccccc2c1Cl | inconclusive: 25.1 µM [inhibitor, single point] | 
22 | Cc1noc2ncnc(N3CCCCC3)c12 |  | inactive: -4.84%
23 | O=C(CC1C(=O)NCCN1CC1CCCCC1)NCc1cccc(F)c1F (configuration not stated) | inconclusive: 50.1 µM [inhibitor, single point] | 
24 | O=S(=O)(Nc1ccccc1)c1ccc(F)cc1 | inconclusive: 14.1 µM [inhibitor, partial curve] | 
25 | O=C(O)CC(C(=O)O)N1C(=O)/C(=C/C=C/c2ccco2)SC1=S (configuration not stated) |  | inactive: 4.9%
26 | COc1ccccc1NC(=O)CSc1nnc2c3ccccc3n(C(C)C)c2n1 | inconclusive: 2.24 µM [inhibitor, full curve, poor fit] | 

Row | Compound | Potency | activity change, negative = displacement
27 | Cc1csc(SCC(=O)NC23CC4CC(CC(C4)C2)C3)n1 | inconclusive: 8.91 µM [inhibitor, partial curve] | 
28 | O=Cc1ccc(OCc2ccc3ccccc3c2)cc1 | inconclusive: 7.94 µM [inhibitor, partial curve, poor fit] | 
29 | Nc1[nH]ncc1-c1ccc(Cl)cc1 |  | inactive: -20.9%
30 | COc1cc(CNCCc2ccc(S(N)(=O)=O)cc2)ccc1OCc1ccc(Cl)cc1 | inconclusive: 25.1 µM [inhibitor, partial curve] | 
31 | CCn1nnc(-c2ccccc2NS(=O)(=O)c2ccc(S(=O)(=O)N3CCCCCC3)cc2)n1 | inconclusive: 28.2 µM [inhibitor, partial curve] | 
32 | CCOCc1nnc(NC(=O)c2ccc(OC)cc2)s1 |  | inactive: 1.8%
33 | COc1cccc(/C=N/Nc2ncccc2[N+](=O)[O-])c1OC |  | inactive: -6.28%
34 | O=C(NC(=S)Nc1ccc(Oc2ccccc2)cc1)c1ccc(Cl)cc1 |  | inactive: -18.3%
35 | CC(=C/c1ccc(C(C)C)cc1)/C=N/NC(=O)c1ccncc1 |  | inactive: 13.7%
36 | Cc1nc(CSc2ccc(Cl)cc2)cc(NCc2ccccc2)n1 | inconclusive: 15.8 µM [inhibitor, partial curve] | 
37 | c1ccc2c(c1)OCCOCCOc1ccccc1OCCOCCO2 |  | inactive: -7.18%
38 | CCCCSCCCNC(=O)c1cn(CC)c2ccc(S(=O)(=O)N3CCCCCC3)cc2c1=O | inconclusive: 8.91 µM [inhibitor, partial curve] | 
39 | CC(=O)Nc1ccc(S(=O)(=O)N[C@@H](C)C(=O)OCc2cc([N+](=O)[O-])cc3c2OCOC3)cc1 |  | inactive: -1.15%
40 | O=C1C(Cl)=C(Nc2cccc(O)c2)C(=O)N1Cc1ccccc1 | inconclusive: 25.1 µM [inhibitor, partial curve] | 
41 | CS(=O)(=O)Nc1ccccc1C(=O)Nc1ccccc1Cl |  | inactive: 0.683%
42 | CCN(CC)CCCNC(=O)c1cn(CCOC)c(=O)c2c1c1ccccc1n2C |  | inactive: -6.99%
43 | Cc1cc(Cl)ccc1OCC(=O)N1CCCCC1 |  | inactive: -7.8%
44 | COc1ccc(OC)c(-c2cc(C(=O)Nc3c(C)nn(Cc4ccccc4)c3C)no2)c1 |  | inactive: -1.43%
45 | COc1cc2[nH]cc(C(=O)NCc3ccccc3)c(=O)c2cc1OC |  | inactive: -1.8%
46 | COc1ccc(-c2nc(C#N)c(NCCc3ccccc3)o2)cc1 |  | inactive: -7.19%
47 | CCc1ccc2nc(N3CCN(C(=O)C(C)(C)C)CC3)sc2c1 |  | inactive: -9.89%
48 | NNC(=O)c1ccc2ccccc2n1 | inconclusive: 12.6 µM [inhibitor, partial curve] | 
49 | COc1ccc(S(=O)(=O)NCc2ccco2)cc1NC(=O)c1ccccc1 |  | inactive: -5.69%
50 | COc1ccc(/C=C/C(=O)C2CC2)cc1COc1c(C)cccc1C | inconclusive: 31.6 µM [inhibitor, partial curve] | 
51 | CCn1c(SCc2ccccc2Cl)nc(=O)c2c(C(=O)OC)cc(C3CC3)nc21 | inconclusive: 44.7 µM [inhibitor, partial curve] | 
52 | C/C(=N\NC(=O)Cc1ccc([N+](=O)[O-])cc1)c1cccnc1 | inconclusive: 35.5 µM [inhibitor, single point] | 

Row | Compound | Potency | activity change, negative = displacement
53 | COc1cc(Cl)ccc1OCc1cc(C(=O)N(C)CCc2cnn(C)c2)no1 |  | inactive: -9.53%
54 | Cc1cc(/C=C(\C#N)C(=O)NCc2ccco2)c(C)n1-c1ccc(C(=O)O)cc1 | inconclusive: 7.08 µM [inhibitor, partial curve] | 
55 | Cc1cc(C)c2c(-n3cccc3)c(C(=O)NCCCN3CCCCC3C)sc2n1 (configuration not stated) | inconclusive: 2.82 µM [inhibitor, partial curve, poor fit] | 
56 | O=C(COc1nncc2ccccc12)NCCC1=CCCCC1 | inconclusive: 7.94 µM [inhibitor, full curve] | 
57 | COc1ccc(NC(=O)c2noc3c2CCC3)cc1 |  | inactive: -17.7%
58 | CC(N)(C(=O)O)c1ccc(S(=O)(=O)O)cc1 (configuration not stated) |  | inactive: 17.5%
59 | COc1ccc2[nH]c(=O)c(CN(CC3CCCO3)C(=O)Nc3ccccc3OC)cc2c1 (configuration not stated) |  | inactive: -15.5%
60 | CN1C(=O)c2ccccc2Sc2ccc(NC(=O)N3CCN(c4ccccc4F)CC3)cc21 |  | inactive: -13.9%
61 | O=C(NCCCNC(=O)c1ccc(-c2cc(Cl)ccc2Cl)o1)c1cnccn1 | inconclusive: 17.8 µM [inhibitor, partial curve] | 
62 | O=C(Nc1ccccc1Cl)Oc1ccc(-c2ccccc2)cc1 | inconclusive: 15.8 µM [inhibitor, partial curve] | 
63 | Cc1nc(-c2ccc(O)c(O)c2)cs1 | inconclusive: 28.2 µM [inhibitor, partial curve] | 
64 | O=C(CSc1ncn[nH]1)Nc1ccc(Br)cc1F | inconclusive: 31.6 µM [inhibitor, single point] | 
65 | COc1cc2c(cc1NC(=O)CSc1ccc(C)cc1)oc1ccccc12 |  | inactive: 67.2%
66 | O=C(COc1ccc(Cl)cc1)OCc1csc(Nc2ccccc2)n1 | inconclusive: 25.1 µM [inhibitor, partial curve] | 
67 | O=C(Nc1cc(NC(=O)c2ccccc2Cl)ccc1Cl)c1ccccc1 |  | inactive: -5.96%
68 | Cc1ccc(-c2cc(C(=O)N3CCN(c4ccccc4O)CC3)c3ccccc3n2)o1 |  | inactive: 65%
69 | O=C(CSc1ccc(-c2ccccn2)nn1)N1CCCc2ccccc21 | inconclusive: 28.2 µM [inhibitor, partial curve] | 
70 | O=C(O)CCCNc1cc(N2CCC3(CC2)OCCO3)c2noc3c2c1C(=O)c1ccccc1-3 | inconclusive: 28.2 µM [inhibitor, partial curve] | 
71 | CCCS(=O)(=O)N1CCN(CC2CC=CCC2)CC1 (configuration not stated) |  | inactive: -8.78%
72 | c1nc2nc(Nc3ccc(N4CCOCC4)cc3)nc(NC3CCCCC3)c2[nH]1 |  | inactive: -10.5%
73 | O=C(Cc1c(F)cccc1Cl)Nc1ccccn1 | inconclusive: 20 µM [inhibitor, partial curve] | 
74 | CC1CCN(c2cc(N3CCOCC3)c([N+](=O)[O-])cc2F)CC1 | inconclusive: 20 µM [inhibitor, partial curve] | 
75 | N/C(=N\OC(=O)CC1CCCCC1)c1ccc(Br)cc1 |  | inactive: -13.6%
76 | NS(=O)(=O)c1ccc(CCNC(=O)c2nc(SCc3ccccc3F)ncc2Cl)cc1 | inconclusive: 31.6 µM [inhibitor, single point] | 
77 | COc1ccc(-c2cnnc(N/N=C/c3ccc(O)cc3)n2)cc1 |  | inactive: -6.76%
